We go through 44 sequences from the supplement of paper PMC11417369.

This is one part of the list.

The test system of this assay is PfSIP2 AP2 domain 1 (GST-tagged). Kind of assay: gcPBM binding intensity (ln(normalized median fluorescence intensity)); higher = stronger DNA binding. The gist of the method:
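The highest Masliner-normalised natural-log median intensity across replicate spots of either probe orientation is reported as binding intensity. GST-tagged P. falciparum DNA-binding domains expressed in E. coli were applied for 1 h to an Agilent 4 × 180k array of primer-extended double-stranded 36-bp intergenic genomic probes plus negative controls, and bound protein was detected with Alexa488 anti-GST antibody and scanned at 488 nm.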
“AAAAAAAAATAAAAATGTACATATATAATATTATAT [XGTACX_site71]”: the “gcPBM binding intensity (ln)” value was found to be 7.14.
With “TTTCTCAATTCTTAGAGTACATAAATAAAAAAAAAA [XGTACX_site7639]” the figure was 7.13.
With “AAGATAAAATTATGCACACATACGAATAATTTTAAA [CACACA_site1705]” the figure was 7.24; with “GAATATATAAGAACAAATATGGCTTAGAAAAAAAAA [TGCATGCA_negctrl_site451]”, 6.61; with “ATAAAAATGGATGAATATAAAAAAAAAAAAATATAT [CACACA_negctrl_site182]”, 7.03.
With “TACAAAAGTTAAACATGTACTTAATTATATGTTTTT [XGTACX_site2852]” the figure was 6.84; with “TCAAGTTTATATTAACTATTTATGAAAAAAAAAAGA [CACACA_negctrl_site902]”, 6.74; with “TTACACTAAATATGTTCACACATTTTTTCCATCATA [CACACA_site4647]”, 6.86.
With “CTAAAAATTTTAATTGCACACCACGTTGGACTATTT [CACACA_site1489]”, the “gcPBM binding intensity (ln)” value amounted to 7.
Regarding TATAAGGCAATAATAGTGCACTAAGATATATAATGA, the “gcPBM binding intensity (ln)” value was 10.6.
With “ATATATTACAAATGGAGTACTAAAAATATTCTATAT [XGTACX_site6669]” the figure was 7.33.
With “TATATATATGGGTTTACACACAATAATGAATTAAAA [CACACA_site915]” the figure was 7.46; with “CCCATGCATTTTTGCACACACATATATTTATAAATA [CACACA_site6785]”, 8.16.
With “CCCACAGACGGACACACACACACATATATATATATA [CACACA_site4352]” the figure was 9.24.
On to “TCTTTATATATATATATATGTGTGAATGTTAAGTAT [XGTACX_negctrl_site135]”, for which the “gcPBM binding intensity (ln)” value came to 7.57.
With “ATTTTTTTTTTTTCCTTACACACATATTTCATTTTA [CACACA_site748]” the figure was 7.26; with “AAATTGTCTGCATATAGTACATAAATATATTAATAT [XGTACX_site4557]”, 7.15.
With ATATATATATATATAGTGCATAATGTTTTAATAGAT the figure was 9.54.
With “CTATTAAAAAAATTATGTACACAACGTCTCTATATA [XGTACX_site4813]” the figure was 7.01; with “TACATTTTTATTTTTACACACATATATATATATATA [CACACA_site1021]”, 9.55; with “GAGTTTATTCTTTTTATACACACCTTATTTGATTAA [CACACA_site735]”, 7.15.
On to “TATAATATATTTATATGTACTTATTTATTTATATAT [XGTACX_site6519]”, for which the “gcPBM binding intensity (ln)” value was determined as 7.03.
With “TATTATTTTATGAGACATAAAAAAAAAAAAAAAAAA [CACACA_negctrl_site1534]” the figure was 7.18; with “AAGTATTATTATAAGACACACATGTATATAAGTATA [CACACA_site1479]”, 6.94; with “TTAAGTATTTTACGTACACACTTATAAATGTACAGG [CACACA_site6012]”, 7.19.
With “TTGCCATTAATTTATACACACACATTTTAATTTTTT [CACACA_site8150]” the figure was 7.17; with “TTGTCATTTATAAAATGTACGTGTGTATATATTTAA [XGTACX_site5000]”, 7.07.
With “TCAATAGTTACTAGTACATGCAAAAATAAACCTATA [TGCATGCA_site85]” the figure was 7.2; with “CAAATATATATGTTCACACATATAATTATTGTGAAA [CACACA_site4190]”, 6.89.
For “AAGAAAATAAAATAAAAAAAAAAATAAAAAAAATAA [TGCATGCA_negctrl_site516]”, the “gcPBM binding intensity (ln)” value is 6.77.
Regarding “TTTTAAAGCATATCATATAAAGAACATGACATAGGA [CACACA_negctrl_site630]”, the “gcPBM binding intensity (ln)” value was 6.9.
“TTATATTTATGATACACACACGTATATTCACATACA [CACACA_site6354]”: the “gcPBM binding intensity (ln)” value came out at 7.01.
“AACATTTTTAAATATATAAAAATATATATATATATA [XGTACX_negctrl_site551]”: the “gcPBM binding intensity (ln)” value was 8.94.
As to “GTATGTTTAATTTTAGTGCAATTATAAATATTTTAA [GTGCAC_site9531]”, the “gcPBM binding intensity (ln)” value worked out at 8.26.
With “AATATCATCAAACGCACACATACATAAATATATTAT [CACACA_site2174]” the figure was 7.24.
With “GTTCTTTCAAGTTATACACACCAAAAAAAAAAAAAA [CACACA_site7435]” the figure was 7.33.
With “TTTCTTTATTTTTTTTTTTTTTTTTTTCCTTTTTTT [TGCATGCA_negctrl_site231]” the figure was 6.62; with “TGTTATATTTGTGCGTGTACACATTTGAAAAAATAT [XGTACX_site3796]”, 8.1.
For the sequence “TGTGCACGCATATACACACACAAATACAATGATAAA [CACACA_site6656]”, the “gcPBM binding intensity (ln)” value worked out at 10.6.
With “AACGGGGCCAAGAAATATAAATAATCAAAACAAAAA [XGTACX_negctrl_site320]” the figure was 7.02.
With “AGTGTGTGTGCGTATAGTACATATACATATATACAC [XGTACX_site6882]” the figure was 7.15; with “AAATGAATAAAATTTATTTATAAAAGAAAAATCACA [GTGCAC_negctrl_site225]”, 6.89; with “ATAATACAAAATACATGTACAAATATTTTTCATATT [XGTACX_site1721]”, 7.
With “TAGTACACACAAAATACATGCGGGGTTTAATATTTA [TGCATGCA_site576]” the figure was 6.82.
